Test results: US20260240958A1, “REPRESSOR FUSION PROTEIN SYSTEMS” (Scribe Therapeutics Inc., priority 2023, published 2026)

System: B2M locus
Experiment: B2M repression by HLA immunostaining and flow cytometry in HEK293T cells transfected with LTRP:gRNA plasmids
Conditions: 4 days post-transfection

Molecule | B2M repression as second repressor domain in LTRP6 configuration
DOMAIN_22153: repressor domain, Zalophus californianus, SEQ ID NO 204 (protein, listed as Zalophus californianus) VRMPVTFEDVAVTFTQEEWGQLDPAQRTLYQEVMLETCGLLVSLGCPLPKPELFYPLDHSPELQTLKRGLSPNSCPGDSTK | highest level of B2M repression at 4 days post-transfection
DOMAIN_10123: repressor domain, Rattus norvegicus, SEQ ID NO 131 (protein, listed as Rattus norvegicus) ALVTFEDVAVRFTQEEWALLDPSQKILYRDVMRETYRNLTSVGINWECWDLEACFRSLGRNLRVQVVKRKCELTNSGPCAE | highest level of B2M repression at 4 days post-transfection
